Measured values from PMC4336329 (PLoS ONE, 2015).
The campaign covered roughly 310,000 compounds. About 14,000 (4.5%) showed an effect of 50% or more. Effects have a minus sign here. This is one part of the list.

Molecular target: human ether-à-go-go-related gene (hERG) potassium channel (human, UniProt Q12809)
Experiment: primary screen, population patch clamp on CHO cells stably expressing hERG
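Note: peak tail current of the secondary pulse compared with the same well before compound.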

Sequence of human ether-à-go-go-related gene (hERG) potassium channel (Q12809 whole entry, looked up): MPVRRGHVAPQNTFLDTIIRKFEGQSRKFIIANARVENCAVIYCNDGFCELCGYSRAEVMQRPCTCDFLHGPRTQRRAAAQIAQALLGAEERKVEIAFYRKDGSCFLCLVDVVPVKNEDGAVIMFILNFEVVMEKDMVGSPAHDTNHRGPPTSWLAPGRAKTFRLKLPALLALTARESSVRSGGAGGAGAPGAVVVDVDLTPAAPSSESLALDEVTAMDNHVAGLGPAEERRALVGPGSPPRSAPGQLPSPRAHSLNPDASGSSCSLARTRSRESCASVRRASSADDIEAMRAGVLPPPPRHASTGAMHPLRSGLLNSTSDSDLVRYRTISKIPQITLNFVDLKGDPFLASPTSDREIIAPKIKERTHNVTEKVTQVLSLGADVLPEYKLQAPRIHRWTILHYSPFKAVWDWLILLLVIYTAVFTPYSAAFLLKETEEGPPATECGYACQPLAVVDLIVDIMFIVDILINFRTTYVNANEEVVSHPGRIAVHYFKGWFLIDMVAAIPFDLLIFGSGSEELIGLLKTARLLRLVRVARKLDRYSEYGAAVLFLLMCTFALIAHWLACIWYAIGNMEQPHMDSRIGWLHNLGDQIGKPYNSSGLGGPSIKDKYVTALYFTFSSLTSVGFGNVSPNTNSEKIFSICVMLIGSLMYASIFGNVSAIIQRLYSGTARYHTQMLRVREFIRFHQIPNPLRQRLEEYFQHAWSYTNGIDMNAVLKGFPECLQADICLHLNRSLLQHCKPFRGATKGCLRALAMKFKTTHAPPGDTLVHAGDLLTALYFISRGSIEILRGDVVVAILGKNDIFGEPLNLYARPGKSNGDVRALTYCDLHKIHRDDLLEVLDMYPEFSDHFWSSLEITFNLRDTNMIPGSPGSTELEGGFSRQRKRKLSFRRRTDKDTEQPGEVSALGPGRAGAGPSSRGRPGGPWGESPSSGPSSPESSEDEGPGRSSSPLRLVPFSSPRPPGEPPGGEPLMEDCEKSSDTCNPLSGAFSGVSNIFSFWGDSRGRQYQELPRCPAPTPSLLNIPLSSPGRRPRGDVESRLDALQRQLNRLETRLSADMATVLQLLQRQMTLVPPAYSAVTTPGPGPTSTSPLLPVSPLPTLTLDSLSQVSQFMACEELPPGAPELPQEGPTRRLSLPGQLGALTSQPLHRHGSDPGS

Row | SMILES | hERG current change (%, negative = inhibition) at 10uM [%]
1 | Cc1nc2cc(NC(=O)CCS(=O)(=O)c3ccccc3)ccc2s1 | 5.59
2 | CCOc1cc(/C=N/Nc2ncnc(Cl)c2N)ccc1O | 2.48
3 | Cc1ccc(-n2ncc(C#N)c2N)cc1 | -14.2
4 | CN(C(=O)COC(=O)CN1C(=O)C2CC=CCC2C1=O)c1ccccc1 (stereo not drawn) | 11.4
5 | CCN(CC)c1ccc(/C=N/NC(=O)CNC(=O)C2COc3ccccc3O2)c(O)c1 (stereo not drawn) | 0.388
6 | COC(=O)c1cc2c(N)c(C(=O)c3ccc(Cl)cc3)sc2nc1C(OC)OC | -69.6
7 | O=[N+]([O-])c1cc(Cl)c(Cl)c(Cl)c1Cl | 23.9
8 | COc1cc([N+](=O)[O-])c(C(=O)N2CCOCC2)c([N+](=O)[O-])c1 | 7.66
9 | O=C(NCc1ccncc1)C(=O)NCC1OCCCN1S(=O)(=O)c1cc(F)ccc1F (stereo not drawn) | 4.86
10 | COC(=O)c1nn(-c2cccc(C)c2)c2nnc(Cc3ccc(C)cc3)c(=O)n12 | 7.2
11 | CC1CCN(C(=O)CSc2nc3ccccc3[nH]2)CC1 | -6.38
12 | Cc1ccc(OCC(=O)Nc2ccc([N+](=O)[O-])cc2)cc1 | 5.9
13 | O=C1CC(C(=O)Nc2ccc(F)cc2)S/C(=N\N=C\c2ccco2)N1 (stereo not drawn) | 2.54
14 | O=C(CN1CCN(S(=O)(=O)c2ccc(Cl)cc2)CC1)Nc1ccc2c(c1)CCC2 | -3.08
15 | CC1CN(c2ccc(Cl)nn2)CC(C)O1 (stereo not drawn) | 24.7
16 | Cc1cc(NC(=O)CCC(=O)N(CC(=O)NC2CCCC2)c2ccc3c(c2)OCCO3)no1 | 6.74
17 | COC(=O)C(c1ccccc1)C1(O)CC(C)N(C)CC1C (stereo not drawn) | 1.96
18 | Cc1cc(C(=O)CCC(=O)Nc2ccc(S(N)(=O)=O)cc2)c(C)s1 | 9.72
19 | O=C(Oc1ccc2c(c1)OCO2)c1cc2c(s1)CCC2 | 8.84
20 | CCC(C)(C)NC(=O)C(c1ccc(OC)cc1)N(C(=O)CCC(=O)Nc1cc(C)on1)c1cccc(OC)c1 (stereo not drawn) | 1.47
21 | CC(=O)Nc1ccc(NC(=O)c2cc(-c3ccc(C)c(C)c3O)n[nH]2)cc1 | 18.5
22 | N/C(=N\OC(=O)c1ccc(=O)n(Cc2ccccc2)c1)c1ccccn1 | 51.6
23 | Cc1ccccc1-c1nc(CS(=O)(=O)CC(=O)NCCCN2CCOCC2)c(C)o1 | -0.453
24 | CC(OC(=O)c1ccco1)C(=O)Nc1ncc(Cl)cc1Cl (stereo not drawn) | 7.63
